# Reference: the supplement of paper PMC3334620
# Whole data set: some 33,000 sequences, median “E-score (-0.5 to 0.5)” near -0.053, cut for the highest 2% near 0.37. The list shows a part of the results.
# Molecular target: Hap1 (UniProt P0CE41)
# Assay: PBM E-score (8-mer binding enrichment) (E-score (-0.5 to 0.5)); higher = stronger / more preferred TF binding; most listed sequences are background and not binding sites
# Conditions: protein concentration: 200 nM; construct: GST-DNA-binding domain
# Method in brief: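 Yeast transcription factors, full-length or as DNA-binding domains, were expressed with a GST tag using PURExpress in vitro transcription/translation. At about 100-200 nM they were applied to universal all-10-mer Agilent arrays, double-stranded by primer extension on fresh or once-stripped slides. Fluorescent anti-GST detected bound protein, and masliner normalised the scans. E-scores for ungapped eight-base words, pooled with reverse complements, came from the Universal PBM Analysis Suite.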
# Chain of UniProt P0CE41 (P0CE41 whole entry): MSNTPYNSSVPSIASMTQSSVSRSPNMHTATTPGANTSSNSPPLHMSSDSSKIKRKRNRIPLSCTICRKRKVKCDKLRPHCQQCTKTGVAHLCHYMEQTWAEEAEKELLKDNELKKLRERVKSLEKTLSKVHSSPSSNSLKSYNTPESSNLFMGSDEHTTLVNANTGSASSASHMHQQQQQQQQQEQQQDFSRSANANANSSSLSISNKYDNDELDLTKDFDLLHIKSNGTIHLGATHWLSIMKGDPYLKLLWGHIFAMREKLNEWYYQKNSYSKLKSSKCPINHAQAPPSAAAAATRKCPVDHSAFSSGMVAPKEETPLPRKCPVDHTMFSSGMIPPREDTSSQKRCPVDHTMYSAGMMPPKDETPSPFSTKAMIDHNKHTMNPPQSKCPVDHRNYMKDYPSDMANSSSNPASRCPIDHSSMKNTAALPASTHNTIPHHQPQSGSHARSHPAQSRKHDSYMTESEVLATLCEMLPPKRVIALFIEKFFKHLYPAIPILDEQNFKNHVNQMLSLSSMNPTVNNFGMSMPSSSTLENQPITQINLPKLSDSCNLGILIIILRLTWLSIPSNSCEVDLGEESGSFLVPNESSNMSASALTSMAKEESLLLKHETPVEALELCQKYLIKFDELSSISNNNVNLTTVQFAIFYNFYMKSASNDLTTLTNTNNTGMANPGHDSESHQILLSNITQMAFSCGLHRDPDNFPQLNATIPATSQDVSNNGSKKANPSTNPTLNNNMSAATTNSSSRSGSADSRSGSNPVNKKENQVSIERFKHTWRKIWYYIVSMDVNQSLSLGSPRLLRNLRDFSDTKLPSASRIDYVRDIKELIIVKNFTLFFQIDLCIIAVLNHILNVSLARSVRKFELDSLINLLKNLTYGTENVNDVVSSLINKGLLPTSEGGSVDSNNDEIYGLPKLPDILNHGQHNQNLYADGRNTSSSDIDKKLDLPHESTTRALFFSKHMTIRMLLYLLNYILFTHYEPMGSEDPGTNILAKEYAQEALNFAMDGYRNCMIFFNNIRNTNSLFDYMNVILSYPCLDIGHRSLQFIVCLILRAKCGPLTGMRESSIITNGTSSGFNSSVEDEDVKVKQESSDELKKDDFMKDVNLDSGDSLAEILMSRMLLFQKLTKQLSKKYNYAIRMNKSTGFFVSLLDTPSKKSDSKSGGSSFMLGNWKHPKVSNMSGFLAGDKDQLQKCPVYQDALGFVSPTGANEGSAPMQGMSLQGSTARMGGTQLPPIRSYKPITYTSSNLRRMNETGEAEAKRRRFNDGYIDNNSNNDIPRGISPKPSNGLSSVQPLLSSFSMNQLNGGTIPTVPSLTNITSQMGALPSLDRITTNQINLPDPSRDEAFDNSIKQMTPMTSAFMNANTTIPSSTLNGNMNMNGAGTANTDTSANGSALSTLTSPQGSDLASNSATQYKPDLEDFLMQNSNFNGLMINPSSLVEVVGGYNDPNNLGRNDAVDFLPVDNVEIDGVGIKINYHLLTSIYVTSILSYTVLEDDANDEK
row,Sequence,PBM E-score
1,TAAATCGA,-0.0466
2,GAGGAAAC,0.0978
3,CAGTGGGG,-0.227
4,CCCGCTAA,0.326
5,AACAGATA,-0.0562
6,ACCTATAA,-0.0286
7,CTGCTGTC,-0.0121
8,ATCGAGTC,-0.156
9,GCGTCCTA,-0.173
10,CCCGGCCG,0.405
11,CATACATC,-0.157
12,GGGTACCC,0.0266
13,CAAAGCCA,-0.17
14,AATACTGG,-0.0493
15,CCCAGCAC,-0.0339
16,GATTGCGA,0.166
17,CATATCAG,-0.155
18,CGGTTGAC,0.244
19,AGATTCTG,-0.14
20,CGTAAAGA,0.0556
21,CAGACCCA,-0.25
22,CTGCTAGA,-0.089
23,CGATTGAC,-0.0683
24,ATACGGGA,0.128
25,ACCCGACA,0.258

row,Sequence,PBM E-score
1,CCTATATA,-0.0101
2,CAAGCTAA,-0.225
3,ACGCCAGA,-0.204
4,AGACTCCG,0.188
5,CGCGGTGC,0.0907
6,AGGGGAGG,0.0355
7,ATCCACAT,-0.0411
8,AAACAGTG,-0.161
9,CAACTTCG,0.022
10,CTTCCTGA,-0.104
11,AGCGTCCA,-0.157
12,AATATTTG,-0.158
13,CTATCGTC,-0.0802
14,ACGAAAAC,0.124
15,CTGGCTTC,-0.194
16,AAAGTCGT,-0.201
17,AAGCGGCT,0.0723
18,ATCCCAAC,-0.239
19,CAAAACTG,-0.0453
20,AAGGACGT,-0.191
21,TATGGGGA,0.0131
22,ACATGCCG,0.117
23,TAGCGCTA,0.0526
24,ATCGGTAC,0.256
25,ATCATAGA,0.0299

row,Sequence,PBM E-score
1,CGACTGCC,-0.12
2,ATTAAACG,0.0351
3,ACAGCTCG,0.0742
4,GACCTTCA,-0.0619
5,CTAGTAAA,0.0494
6,ACAGGCGA,-0.069
7,AAGACTAA,-0.0141
8,ATGTCACA,-0.306
9,TGATGGAA,-0.238
10,AATGTGAG,-0.236
11,GTTTAAAA,-0.12
12,AGAATGCG,0.0568
13,AGCAGCCG,0.106
14,TCAGCCAA,-0.248
15,ATCTCGCA,-0.0225
16,ATGTTGGC,0.0645
17,AAGTGACC,-0.0672
18,CGAAGGCA,-0.11
19,CCTTTGAC,-0.205
20,CTCTTGGC,-0.29
21,CGCGTCAC,-0.174
22,ATTTCAGG,-0.0459
23,GCCATTGA,-0.0815
24,CCAACTTA,0.0877
25,GAAGCTGC,-0.0136

row,Sequence,PBM E-score
1,ACAGGACA,0.0445
2,CGCACTGA,-0.0783
3,GCTAAGGA,-0.266
4,ACCCGCCG,0.331
5,GGACACTA,0.0258
6,ACACCCAA,-0.105
7,AGTATCGA,-0.048
8,AGGCATTG,-0.124
9,TACGAATA,-0.228
10,CGACAGCG,0.179
11,GTACCTAC,-0.275
12,CTCACCGA,0.157
13,ACCTGTTA,-0.105
14,ACTTTTGC,-0.0819
15,CTAGCGTA,-0.16
16,AGACTAGC,-0.356
17,AAGTTGCT,-0.0986
18,ACTACTCC,0.24
19,GATGTATA,-0.0187
20,TCCTGGAA,-0.0863
21,CCCACACC,-0.135
22,GGTGTTCA,0.00746
23,AGCAGCAT,-0.158
24,CGAGCTGA,0.0746
25,AGGTGACC,-0.183

row,Sequence,PBM E-score
1,CTGACGGA,0.172
2,ACACCAAG,-0.219
3,AATCGAGC,-0.0481
4,AACTTCTG,-0.205
5,CCGCGTAC,0.125
6,ACCGACGC,0.142
7,CCAAGGGA,-0.145
8,CACGGCGA,0.0656
9,CCTTCACA,-0.275
10,GAAAGCAC,-0.0481
11,ATGAATCG,0.0536
12,GCAGTGGA,-0.13
13,ACACTTAG,-0.0772
14,AGCGGGAC,0.104
15,GATTACGA,0.0843
16,GATGGAGC,-0.0558
17,GACTGCCC,-0.0849
18,AAGGCTAA,-0.0963
19,GTTTGTAA,-0.0808
20,CCCAGATC,-0.0435
21,CAAGAGTC,-0.16
22,ACATTCTG,-0.194
23,ATACCCGG,0.38
24,GCATAACC,0.131
25,ATGGAAAC,-0.0981

row,Sequence,PBM E-score
1,CACTGGGG,-0.126
2,CAGACAAA,-0.185
3,GCGTCGTA,0.102
4,CCTGCAGA,0.00922
5,AACCGCCC,0.0175
6,CACAATGC,-0.0342
7,GGCACCCA,-0.186
8,CTACACAA,-0.191
9,ATAGCCGG,0.397
10,CCTCCATA,-0.142
11,CGCTCCCA,-0.0634
12,CCTAACTA,-0.0142
13,CGAGTTAG,-0.0583
14,GACAGGGA,-0.17
15,AAAGCGTT,-0.234
16,CCCGTAGG,-0.158
17,AAGTTGCC,0.0953
18,AAGGCTCA,-0.159
19,ATGGCCCG,0.291
20,TACTCTAA,-0.0945
21,CATTCGTA,-0.185
22,AGGGGTCA,-0.246
23,ACATCATG,-0.165
24,GCTGACAC,-0.154
25,AGCGGGGG,0.0616

row,Sequence,PBM E-score
1,CAGGCGAA,-0.193
2,AATAGTAA,-0.112
3,CGGCGAGC,0.266
4,GCGATAAA,0.258
5,ACTGGGAG,-0.0791
6,AGGCACTG,-0.128
7,CGAAGACA,0.151
8,CCTGCAAG,-0.234
9,TGACGGAA,0.241
10,AGAGCCCT,-0.291
11,AACGCGCT,0.139
12,GCAAATTA,0.163
13,CCACTGGC,-0.0966
14,CACGGCTA,0.0584
15,CTATGACC,0.0283
16,TCGGACCA,0.381
17,AACTATCG,0.159
18,GCGAGATA,0.148
19,ACGAGAGC,-0.0925
20,ACTAGCTA,-0.162
21,AGGGCTAA,-0.2
22,AGTTACTA,-0.128
